# Test results from PubChem BioAssay AID1745845 (National Center for Advancing Translational Sciences (NCATS), 2022).
# Values joined by “and” are separate entries in the source; they are usually repeats but may differ in a detail not shown here. Identical values can stand only once. Screen size: about 360,000 compounds; about 2,600 (0.72%) were called active. The inconclusive results got no clear call from the source; some entries with a clear call stand among them for comparison. Calls come from the whole dose curve; as a rule, active = well fitted inhibition curve with a large enough effect; inconclusive = small, poorly fitted or top-dose-only effect; inactive = no such curve, though single readings can be large or run the other way. Where the call is inconclusive, the potency comes from a doubtful curve fit. The source holds several records for some structures; these can differ, active in one and inactive in another.
# Assay: Primary qHTS for Inhibitors of ATXN expression; note: nearly all actives have a fitted effect of over 55% in size
# Details: HEK-293 ATXN2-luciferase reporter, luminescence, 24 h; activity change, negative = inhibition: at 57 µM (top of the series)
# Outline: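 qHTS (up to 57 uM final) was run with 24 h compound exposure of reporter cells at 37 °C. Each well was multiplexed: SteadyGlo luminescence measured ATXN2-luciferase expression after a fluorogenic Gly-Phe-AFC viability readout (25 uM final).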
# % is set by controls: 0 for no effect and ±100 for the full control effect; potency is the fitted concentration of half-maximal effect; tags give direction and shape of the fitted curve.
Compound,Potency,"activity change, negative = inhibition"
CC(O)C1C=CC=CC(=O)OC2CC3OC4C5OC5(C)CCC4(COC(=O)C4OC4(C)C(O)CO1)C2(C)C31CO1 (configuration not stated),"inconclusive: 0.15 µM [inhibitor, full curve]",–
CCC(C)NC(=O)c1c(N)n(Cc2ccc3c(c2)OCO3)c2nc3ccccc3nc12 (configuration not stated),"inconclusive: 31.6 µM [inhibitor, partial curve]",–
CC(C)OCCCNC(=O)c1c(N)n(CC2CCCO2)c2nc3ccccc3nc12 (configuration not stated),"inconclusive: 31.6 µM [inhibitor, single point]",–
COc1ccc(-[n+]2c(-c3ccccc3)cc(-c3ccc(C)cc3)cc2-c2ccccc2)cc1,"inconclusive: 12.6 µM [inhibitor, partial curve, poor fit]",–
CCCCC(CC)COCCCN=Cc1c(O)[nH]c(=S)[nH]c1=O (configuration not stated),"inconclusive: 1.89 µM [inhibitor, full curve, poor fit]",–
O=Cc1cn(Cc2cccc([N+](=O)[O-])c2)c2ccccc12,active: 0.447 µM,–
O=[N+]([O-])c1ccccc1-c1cc(-c2ccccc2)cc(-c2ccccc2)[n+]1Cc1ccccc1Cl,"inconclusive: 3.16 µM [inhibitor, single point]",–
COC(=O)C1=C(c2ccc(Cl)c(C(F)(F)F)c2)C[C@@H]2CC[C@H]1N2C(=O)NCCO,–,inactive: 2.58%
O=C(Nc1ccncc1)C(=O)c1cn(Cc2ccc(Cl)cc2)c2ccccc12,"inconclusive: 1.72 µM [inhibitor, partial curve]",–
COC(=O)C1=C(c2ccc(-c3ccccc3)c(F)c2)C[C@@H]2CC[C@H]1N2C(=O)NCc1ccc(F)cc1,"inconclusive: 22.4 µM [inhibitor, single point]",–
O=C(c1cccn2c(=O)c3cc(Br)ccc3nc12)N1CCC2(CC1)OCCO2,"inconclusive: 4.47 µM [inhibitor, single point]",–
Oc1ccc(-[n+]2c(-c3ccccc3)cc(-c3ccccc3)cc2-c2ccccc2)cc1,active: 12.6 µM,–
CCOc1ccccc1N1C(=O)NC(=O)/C(=C/c2ccc3c4c(cccc24)CC3)C1=O,–,inactive: -3.97%
COc1ccc(-c2nc(CN3C(=O)CN=C(c4ccccc4)c4cc(Cl)ccc43)c(C)o2)cc1,"inconclusive: 28.2 µM [inhibitor, single point]",–
Cc1cc(OC(C)C(=O)NCc2cccnc2)c2c3c(c(=O)oc2c1)CCC3 (configuration not stated),–,inactive: 4.1%
Nc1c(C(=O)NCCc2ccccc2)c2nc3ccccc3nc2n1CCN1CCOCC1,"inconclusive: 35.5 µM [inhibitor, single point]",–
Nc1ccccc1C(=O)OCC(=O)N1CCc2ccccc21,–,inactive: 64.9%
COC(=O)C1=C(c2ccc(OCc3ccccc3)cc2)C[C@@H]2CC[C@H]1N2C(=O)NCc1ccc([N+](=O)[O-])cc1,–,inactive: -23.6%
C=C(C)[C@H]1CN[C@H](C(=O)O)[C@H]1CC(=O)O,inactive,–
COc1ccccc1-n1c(-c2cccs2)nc2ccccc2c1=O,–,inactive: -0.0204%
CCOP(=O)(OCC)C(O)c1ccccc1 (configuration not stated),–,inactive: -20.9%

Compound,Potency,"activity change, negative = inhibition"
COc1cccc(-c2nc3ccc(N4CCN(C)CC4)cc3[nH]2)c1,"inconclusive: 3.55 µM [inhibitor, single point]",–
c1ccc(-c2cc(-c3ccccc3)[n+](-c3ccccc3)c(-c3ccccc3)c2)cc1,active: 8.91 µM,–
O=C1NC(=O)C(=Cc2c(Cl)cccc2Cl)C(=O)N1,–,inactive: -15.4%
C=CCn1c(O)c(C(CC)=NCc2ccc3c(c2)OCO3)c(=O)[nH]c1=O,–,inactive: 8.63%
C[C@H]1CCCC(=O)CCC/C=C/c2cc(O)cc(O)c2C(=O)O1,"inconclusive: 25.1 µM [inhibitor, single point]",–
CC1OC(OC2C=C3CCC4C(CCC5(C)C(c6ccc(=O)oc6)CCC45O)C3(C)CC2)C(O)C(OC2OC(CO)C(O)C(O)C2O)C1O (configuration not stated),active: 0.0075 µM,–
CC(C)n1c(O)c(C2c3cc(Cl)ccc3Oc3[nH]c(=O)n(C(C)C)c(=O)c32)c(=O)[nH]c1=O (configuration not stated),active: 3.98 µM,–
Oc1c(Br)cc(-c2ccccc2)cc1Br,–,inactive: -11.2%
CC1=C(O)C(=O)C=C2C1=CC=C1C2(C)CCC2(C)C3CC(C)(C(=O)O)CCC3(C)CCC12C (configuration not stated),active: 4.47 µM,–
COCCCn1c(N)c(C(=O)Nc2ccccc2)c2nc3ccccc3nc21,–,inactive: -38.4%
CCN(CC)C(=O)c1ccc(NC(=O)CCn2nc(-c3ccc(Cl)cc3)c3ccccc3c2=O)cc1,"inconclusive: 28.2 µM [inhibitor, single point]",–
COc1ccc2[nH]cc(CCN(C(C)C)C(C)C)c2c1,"inconclusive: 31.6 µM [inhibitor, partial curve]",–
CCCC/C(C)=C/[C@@H](NP(=O)(c1ccccc1)c1ccccc1)c1ccccc1,"inconclusive: 39.8 µM [inhibitor, single point]",–
Cc1ccc(OCC(=O)N2CCN(Cc3ccc([N+](=O)[O-])cc3)CC2)cc1,"inconclusive: 8.91 µM [inhibitor, partial curve, poor fit]",–
COc1ccccc1CN1CCN(C(=O)COc2ccc3ccccc3c2)CC1,–,inactive: 1.89%
N#CC1c2ccccc2-n2nncc2CN1Cc1cc(Cl)cc(Cl)c1 (configuration not stated),active: 4.47 µM,–
C=C1C(=O)O[C@@H]2C[C@@H](C)[C@@H]3C=CC(=O)[C@@]3(C)[C@@H](O)[C@H]12,active: 1.78 µM,–
CNC(=O)Nc1ccc(C(=O)N/N=C\C23CC[C@@H](O)CC2(O)CC[C@@H]2[C@@H]3CCC3(C)C(C4=CC(=O)OC4)CCC23O)cc1 (some centres not stated),"inconclusive: 22.4 µM [inhibitor, single point]",–
COC(=O)C1=C(c2cccc(C#N)c2)C[C@@H]2CC[C@H]1N2C(=O)NCc1cc(C)oc1C(F)(F)F,–,inactive: -12.3%
Cc1c(N)nc([C@H](CC(N)=O)NC[C@@H](N)C(N)=O)nc1C(=O)N[C@H](C(=O)N[C@@H](C)[C@H](O)[C@@H](C)C(=O)N[C@@H](C(=O)NCCc1nc(-c2nc(C(=O)NCCC[S+](C)C)cs2)cs1)[C@@H](C)O)C(O[C@H]1O[C@H](CO)[C@H](O)[C@@H](O)[C@@H]1O[C@H]1O[C@H](CO)[C@@H](O)[C@H](OC(N)=O)[C@H]1O)c1cnc[nH]1 (some centres not stated),active: 13.7 µM,–
CC1=C(O)C(=O)C=C2C1=CC=C1[C@@]2(C)CC[C@@]2(C)[C@@H]3C[C@](C)(C(=O)O)CC[C@]3(C)CC[C@]12C,active: 2.43 µM,–

Compound,Potency,"activity change, negative = inhibition"
Fc1ccc(CCNCc2cccc(Cl)c2)cc1,"inconclusive: 31.6 µM [inhibitor, single point]",–
O=C(Cc1ccccc1)N1CCN(Cc2ccc(Cl)cc2)CC1,"inconclusive: 12.6 µM [inhibitor, single point]",–
COc1cc([C@@H]2c3cc4c(cc3[C@@H](OC)[C@H]3COC(=O)[C@H]23)OCO4)cc(OC)c1O,–,inactive: -23.3%
Oc1cccc2cccnc12,inactive and active: 11.2 µM,–
CN(C)c1ccc(/C=C2\CC3C4CC=C5CC(O)CCC5(C)C4CCC3(C)C2=O)cc1 (configuration not stated),"inconclusive: 11.2 µM [inhibitor, partial curve, poor fit]",–
CC12CCC(O)CC1CCC1C2CCC2(C)C(C3=CC(=O)OC3)C(O)CC12O (configuration not stated),"inconclusive: 3.36 µM [inhibitor, full curve, poor fit]",–
CN1C(=O)N(C)C(=O)C2(Cc3ccccc3N3CCOCC32)C1=O (configuration not stated),"inconclusive: 35.5 µM [inhibitor, single point]",–
CN(C)[C@@H]1C(=O)C(C(N)=O)=C(O)[C@@]2(O)C(=O)C3=C(O)c4c(O)ccc(Cl)c4[C@@](C)(O)C3C[C@@H]12 (some centres not stated),"inconclusive: 39.8 µM [inhibitor, single point]",–
CN(C)C(=O)Oc1ccc(C(=O)c2ccccc2)cc1,–,inactive: 41.8%
Oc1ccc(Cl)cc1Cc1ccccc1,"inconclusive: 70.8 µM [inhibitor, partial curve]",–
Oc1ccc(Cl)cc1CN1CCN(Cc2ccccc2)CC1,–,inactive: 0.438%
Brc1ccc2[nH]cc(C=NN3CCCCCC3)c2c1,–,inactive: -0.652%
COC(=O)C1=C(c2ccccc2OCc2ccccc2)C[C@@H]2CC[C@H]1N2C(=O)NCCOc1ccccc1,"inconclusive: 35.5 µM [inhibitor, single point]",–
O=P(Nc1ccccc1)(Nc1ccccc1)Oc1cccc(Cl)c1,"inconclusive: 39.8 µM [inhibitor, single point]",–
CCOC(=O)c1c(NC(=O)C(c2ccccc2)c2ccccc2)sc2c1C1CCN2CC1,"inconclusive: 39.8 µM [inhibitor, single point]",–
S=P(NCCNP(=S)(N1CC1)N1CC1)(N1CC1)N1CC1,"inconclusive: 3.16 µM [inhibitor, full curve]",–
c1cc2ccc3cccc4ccc(c1)c2c34,"inconclusive: 50.1 µM [inhibitor, partial curve, poor fit]",–
C[C@@H]1CC[C@@]2(OC1)O[C@H]1C[C@H]3[C@@H]4CC=C5C[C@@H](O[C@@H]6O[C@H](CO)[C@@H](O[C@@H]7O[C@@H](C)[C@H](O)[C@@H](O)[C@@H]7O)[C@H](O)[C@@H]6O[C@@H]6O[C@@H](C)[C@H](O)[C@@H](O)[C@@H]6O)CC[C@]5(C)[C@@H]4CC[C@]3(C)[C@@H]1[C@H]2C,active: 12.2 µM,–
COc1ccc2c3c1O[C@H]1[C@@H](O)C=C[C@H]4[C@@H](C2)N(C)CC[C@@]341,"inconclusive: 35.5 µM [inhibitor, partial curve, poor fit]",–
COC(=O)C1=C(c2ccc(OCc3ccccc3)cc2)C[C@@H]2CC[C@H]1N2C(=O)NCc1ccccc1,"inconclusive: 28.2 µM [inhibitor, partial curve, poor fit]",–
